# Source: the supplement of paper PMC3334620
# Whole data set: some 33,000 sequences, median “E-score (-0.5 to 0.5)” near -0.04, cut for the highest 2% near 0.36. Some of the results follow.
# Target: T1, Hmlalpha2 (UniProt P0CY09)
# T1 sequence: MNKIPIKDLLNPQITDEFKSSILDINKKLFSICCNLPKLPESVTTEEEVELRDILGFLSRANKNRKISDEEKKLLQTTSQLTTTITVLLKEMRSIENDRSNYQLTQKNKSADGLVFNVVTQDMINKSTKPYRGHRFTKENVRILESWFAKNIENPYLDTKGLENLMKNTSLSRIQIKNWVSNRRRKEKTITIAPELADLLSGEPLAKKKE
# Test: PBM E-score (8-mer binding enrichment) (E-score (-0.5 to 0.5)); higher = stronger / more preferred TF binding; most listed sequences are background and not binding sites
# Conditions: protein concentration: 200 nM; construct: GST-full length
# Description: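 Universal 'all 10-mer' protein binding microarrays (Agilent AMADID 015681) probed with GST-tagged S. cerevisiae TFs (full-length or DBD) made by in vitro transcription/translation (PURExpress), about 100-200 nM. Bound TF was detected with fluorescent anti-GST. Each ungapped 8-mer (which stands for itself and its reverse complement) is scored by the PBM enrichment score (E-score), a modified Wilcoxon-Mann-Whitney statistic from -0.5 to +0.5, computed with the Universal PBM Analysis Suite. Scale: above 0.35 generally sequence-specific binding.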
row,Sequence,PBM E-score
1,AGGTGGGC,-0.148
2,AGTCGAAT,-0.234
3,ACCCACCT,-0.287
4,CCTGTCAC,-0.135
5,ATTTCGTC,0.0444
6,TATAACAA,0.254
7,GTGAAGTA,0.0578
8,CCCGAGGG,-0.197
9,CCTGTACC,-0.107
10,AATGAGAA,0.0317
11,CCGACAAC,-0.00545
12,AACTTAGT,0.0856
13,ATCATGTG,0.209
14,CGGGATAC,-0.16
15,GGCTCCCC,-0.389
16,ATAATGCG,0.177
17,ACTGATCG,0.00936
18,GCCTGGGA,-0.143
19,AAACTACA,0.362
20,ACGGCAGA,-0.12
21,CATCGAAC,-0.161
22,CTCCCAGA,-0.181
23,ACAGAAGC,-0.0384
24,GCCATGGC,-0.224
25,GAGGGGGA,-0.277

row,Sequence,PBM E-score
1,ATACGAAC,0.175
2,AGCACCCA,-0.176
3,AGTTCCTA,0.075
4,CCGTCAGA,-0.332
5,CCGCCGGC,-0.218
6,ACTGAAAC,0.13
7,CTTTCCCC,-0.128
8,ACACAAAA,0.305
9,AGCTGCTG,-0.158
10,ATGTTGTA,0.406
11,ACTGTGTG,0.128
12,AACCTAGT,-0.0074
13,ATTTTTAC,0.368
14,ACAGTAGT,-0.0296
15,CGTCTATA,-0.0303
16,CACGACCC,-0.031
17,GCGTAGAA,0.313
18,GGAAAGGA,-0.209
19,AAGTGTGT,0.303
20,GACCTAAC,-0.00144
21,AACGCCGG,-0.111
22,CTAAACGA,0.0213
23,CTTCTCGA,0.0282
24,ATCTGGTG,-0.123
25,CATATAGA,0.183

row,Sequence,PBM E-score
1,ACGCGATC,0.299
2,ATGCCCAA,-0.137
3,GAGACACC,-0.137
4,AGTCTGAT,-0.12
5,CGAGGACA,-0.168
6,GCCGATGA,-0.321
7,GGCTTCAC,-0.283
8,TAATCACA,0.221
9,ACGAAAGC,-0.00153
10,ATGAACCG,-0.043
11,CCCCGAAA,-0.0303
12,ACCTTAAG,-0.14
13,AATCGTCG,-0.121
14,CGACCCCC,-0.311
15,GAGGTCAC,-0.239
16,ACCGGTGG,-0.44
17,GGACTCAC,-0.291
18,CCACAGAC,-0.178
19,AATGACCG,-0.213
20,CCGTCGAC,-0.122
21,CCCCAGGA,-0.24
22,GCTGATAC,-0.113
23,ACGTTGAC,0.235
24,AGAAGCTA,-0.0858
25,CAAGGCGG,-0.0686

row,Sequence,PBM E-score
1,ATACCCAA,0.0932
2,GCAGGTAA,0.16
3,GTCCCCAA,-0.225
4,AATGGCAC,-0.204
5,ACACGCCT,0.374
6,CTCGCGCA,-0.164
7,GTGGTAGA,-0.185
8,AATGCGCG,0.197
9,ATCTGCTA,0.0607
10,GTTCTAAA,0.0256
11,CGGAGTTA,-0.00265
12,AACACTTG,-0.00058
13,GCCTACAA,0.0587
14,CCCCGAGA,-0.19
15,TCGAGGAA,-0.16
16,CGTCCGCA,-0.0892
17,ACGTTTCC,-0.104
18,GATGATTA,0.116
19,CGCTCCAA,-0.172
20,CGCTCGTC,-0.0431
21,ACTGCACG,-0.0728
22,ACGATGAC,-0.0158
23,CGCGTCCG,-0.00458
24,GCCCGACA,0.0499
25,AACCGATG,0.0411

row,Sequence,PBM E-score
1,CCAAGATC,-0.171
2,ATCTTCCC,-0.0479
3,AATGAGCC,-0.243
4,AAATGTCT,-0.0122
5,GTCAATCA,0.0776
6,AAAGCTGC,-0.0259
7,ACCGGGCA,-0.281
8,ATGCCTCG,0.114
9,AACGGTGG,-0.182
10,AGAAGCTC,-0.0869
11,CATAAGAG,-0.0846
12,CATGCAGC,-0.105
13,AGAGAGGG,-0.286
14,GGAGTGCC,-0.262
15,AAATATAC,0.0539
16,CGTATGGA,-0.143
17,CGACCAAA,0.128
18,GTTCTCCA,-0.0609
19,AACTAGTT,0.188
20,CCATATAG,-0.192
21,TAGGTGGA,-0.0803
22,GGATCATA,-0.23
23,ATATACCA,-0.0254
24,ATTAATGG,0.216
25,GCTGAGTA,-0.0231

row,Sequence,PBM E-score
1,GGCTAACA,0.237
2,ACTCGTAC,-0.0659
3,ATACCGAC,-0.0528
4,ATTAACTA,0.173
5,CCAACTGG,-0.186
6,CCCTTAAG,0.0728
7,AGTCTATC,-0.0461
8,CCCCGATA,-0.147
9,CTCGTGGC,-0.118
10,GGTGAACC,-0.0688
11,CCGGTGTA,0.125
12,AGTTAGAA,-0.0438
13,CCTAAGTA,0.0626
14,AACGGCCT,-0.274
15,CTAAAAGA,-0.0239
16,AATAACGC,0.258
17,GCTTATCA,0.00712
18,ATCCGATC,0.0732
19,ACAACATC,0.263
20,TATATTGA,-0.00917
21,CTATGTAA,0.485
22,ATCGAATG,-0.025
23,CGATCCAA,-0.135
24,AGCACTAT,0.104
25,GCAACGTA,0.134

row,Sequence,PBM E-score
1,GAGGAGTA,-0.00994
2,CACACTTA,0.104
3,AGGCCTGA,-0.218
4,AGTGGCTG,-0.219
5,ACGTTCAT,0.21
6,AAGAATCT,0.0109
7,GGGCCAGA,-0.227
8,GACACCCA,-0.174
9,GATCTCCA,-0.15
10,ACTCTTAG,0.0286
11,GATATCGA,-0.0694
12,ATCCGCCA,-0.173
13,GAACCAAC,0.0452
14,GATACGAC,-0.0691
15,AGGTCGAT,-0.0724
16,GGCTTCCC,-0.257
17,GTGCCTTA,-0.08
18,GTTTAACA,0.41
19,AGTACCTC,-0.0573
20,GAACAGGA,0.0327
21,AGTGATAC,-0.0724
22,ATGTCTAA,0.255
